Experimental data: PubChem BioAssay AID1347165 (National Center for Advancing Translational Sciences (NCATS), 2019)
In all, about 220,000 compounds went through this assay and about 5,700 (2.6%) were called active. The shares of active, inactive and inconclusive entries below differ from those in the screen. The call rests on the fitted dose curve; in most records, active means well fitted inhibition curve with a large enough effect; inconclusive means small, poorly fitted or top-dose-only effect; inactive means no such curve, though single readings can be large or run the other way. Potencies beside an inconclusive call are fits to weak or partial responses and may not hold up.

Biological target: Lysine-specific demethylase 5B (Homo sapiens) (UniProt Q9UGL1)
UniProt Q9UGL1, sequence (Q9UGL1 whole entry, looked up): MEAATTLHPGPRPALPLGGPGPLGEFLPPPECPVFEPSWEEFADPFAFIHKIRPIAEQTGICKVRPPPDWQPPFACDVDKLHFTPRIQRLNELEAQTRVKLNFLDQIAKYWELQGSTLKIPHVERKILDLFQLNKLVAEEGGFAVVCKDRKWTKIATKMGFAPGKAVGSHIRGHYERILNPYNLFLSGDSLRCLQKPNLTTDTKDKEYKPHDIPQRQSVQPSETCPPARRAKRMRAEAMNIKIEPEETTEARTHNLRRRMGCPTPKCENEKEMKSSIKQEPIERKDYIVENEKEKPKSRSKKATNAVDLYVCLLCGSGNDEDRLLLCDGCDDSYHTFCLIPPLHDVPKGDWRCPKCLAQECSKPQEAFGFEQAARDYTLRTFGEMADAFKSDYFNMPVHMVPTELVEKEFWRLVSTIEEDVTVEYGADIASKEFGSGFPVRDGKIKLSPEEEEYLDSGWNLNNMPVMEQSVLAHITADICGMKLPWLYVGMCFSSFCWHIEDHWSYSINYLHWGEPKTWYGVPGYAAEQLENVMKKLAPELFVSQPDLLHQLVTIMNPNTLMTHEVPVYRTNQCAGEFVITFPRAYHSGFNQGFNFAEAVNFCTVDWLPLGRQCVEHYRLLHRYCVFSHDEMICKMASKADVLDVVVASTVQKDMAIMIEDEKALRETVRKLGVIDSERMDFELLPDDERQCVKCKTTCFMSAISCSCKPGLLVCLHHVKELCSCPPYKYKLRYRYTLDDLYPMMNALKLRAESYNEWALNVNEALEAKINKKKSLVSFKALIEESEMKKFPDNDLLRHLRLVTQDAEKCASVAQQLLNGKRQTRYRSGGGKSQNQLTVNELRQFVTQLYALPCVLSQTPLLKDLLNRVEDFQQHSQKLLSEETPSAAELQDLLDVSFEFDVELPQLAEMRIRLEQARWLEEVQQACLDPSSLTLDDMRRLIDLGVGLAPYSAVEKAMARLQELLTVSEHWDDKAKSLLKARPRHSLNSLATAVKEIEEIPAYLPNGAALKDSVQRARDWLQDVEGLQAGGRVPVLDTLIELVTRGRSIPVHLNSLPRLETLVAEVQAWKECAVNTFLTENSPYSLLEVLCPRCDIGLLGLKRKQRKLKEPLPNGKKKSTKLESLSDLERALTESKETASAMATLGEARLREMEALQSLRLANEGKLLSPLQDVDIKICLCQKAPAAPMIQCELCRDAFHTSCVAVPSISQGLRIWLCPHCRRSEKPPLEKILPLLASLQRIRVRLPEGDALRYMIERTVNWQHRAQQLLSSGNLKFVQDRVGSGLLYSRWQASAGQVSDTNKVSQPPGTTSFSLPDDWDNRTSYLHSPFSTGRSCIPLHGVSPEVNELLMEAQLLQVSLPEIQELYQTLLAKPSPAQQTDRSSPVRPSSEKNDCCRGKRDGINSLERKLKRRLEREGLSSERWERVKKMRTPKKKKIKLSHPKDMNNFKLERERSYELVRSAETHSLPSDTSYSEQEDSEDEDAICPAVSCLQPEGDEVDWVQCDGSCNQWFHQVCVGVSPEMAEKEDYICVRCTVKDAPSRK
Assay: Primary screen for KDM5B Histone Demethylases FDH-coupled qHTS; further: nearly all actives have a fitted effect of over 70% in size; on activity change, negative = inhibition: 0% is about no effect
Details: FDH-coupled NADH fluorescence (FDH is formaldehyde dehydrogenase); activity change, negative = inhibition: at 57.7 µM (top of the series) unless noted
In short: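 Measured: NADH fluorescence change, 30 min, RT. System: KDM5BΔAP 200 nM final, H3K4me3 peptide, α-KG, Fe(II), ascorbate, NAD⁺ plus FDH, pH 7.5 HEPES. Compounds: titrated, 10 min pre-incubation with enzyme.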
Potency means the concentration at half of the fitted maximal effect; tags describe the fitted curve by direction and shape.

| Compound | Potency | activity change, negative = inhibition |
| --- | --- | --- |
| O=C1NC(=O)/C(=C\c2ccc(Br)o2)S1 | inconclusive: 39.8 µM [inhibitor, single point] | – |
| Cc1ccc(NC(=O)N2CCN(C(=O)c3nsc4ccccc34)CC2)cc1C | – | inactive: 3.71% |
| O=C(O)c1cccc([S+](=O)([O-])N2CC(CNC(=O)c3ccccc3)C3(CN(c4ccccc4)C3)C2)c1 (stereo unspecified) | – | inactive: -7.53% |
| O=c1n(-c2ccc(F)cc2F)nc2n1CCN(CC1CCCCC1)C2 | inconclusive: 25.1 µM [inhibitor, partial curve] | – |
| Cc1[nH]c(-c2ccccn2)nc(=S)c1Cl | inconclusive: 39.8 µM [inhibitor, single point] | – |
| CCOC(=O)c1cnc(NC2CCCCC2)c2ccccc12 | inconclusive: 25.1 µM [inhibitor, partial curve, poor fit] | – |
| CC(=O)c1cc2c(cc1NC(=O)CSc1nnc(C3CC3)n1C1CC1)OCO2 | inconclusive: 25.1 µM [inhibitor, single point] | – |
| O=C(CN1CCS(=O)(=O)CC1)N1CCN(c2ccccn2)CC1 | inconclusive: 28.2 µM [inhibitor, single point] | – |
| CC(=O)Oc1cccc(/C=C2\Sc3ccccc3C2=O)c1 | inconclusive: 31.6 µM [inhibitor, partial curve, poor fit] | – |
| O=C(CN1C(=O)COc2ccc(C(=O)COc3ccccc3Cl)cc21)NCC1CCCO1 (stereo unspecified) | – | inactive: -15.1% |
| COc1ccccc1NC(=O)C(=O)c1cc(C)n(-c2cc(C)cc(C)c2)c1C | inconclusive: 25.1 µM [inhibitor, partial curve, poor fit] | – |
| NC(=S)N/N=C1\CCCc2ccccc21 | inconclusive: 10 µM [inhibitor, partial curve, poor fit] | – |
| Cc1ccc2nc(/C(C#N)=C/c3cc(C)c(C)cc3C)[nH]c2c1 | – | inactive: 5.46% |
| O=C(COc1ccc2ccc(=O)oc2c1)NC(=O)NC1CCCCC1 | inconclusive: 14.1 µM [inhibitor, partial curve, poor fit] | – |
| CNC(=O)CCNC(=O)c1cc(-c2ccc(OC)cc2)nc2ccccc12 | inconclusive: 28.2 µM [inhibitor, partial curve, poor fit] | – |
| O=C(Cc1ccccc1)NC1CCN(c2cc(-c3ccccc3)[nH]n2)CC1 | inconclusive: 28.2 µM [inhibitor, partial curve] | – |
| Cc1cc(=O)oc2cc(OCC(=O)NCCCN3CCCC3=O)ccc12 | inconclusive: 25.1 µM [inhibitor, partial curve, poor fit] | – |
| O=C(Nc1ncc(-c2cccc(F)c2)c2c1OCC2)c1ccc(F)c(Cl)c1 | active: 22.4 µM | – |
| CCCCNC(=O)c1ccc2c(c1)NC(=O)C(C(C)C)N2 (stereo unspecified) | inconclusive: 25.1 µM [inhibitor, partial curve, poor fit] | – |
| COc1ccc2c(c1)c1c(c(=O)n(-c3ccc(F)c(Cl)c3)c(=O)n1Cc1ccccc1F)n2C | inconclusive: 2.82 µM [inhibitor, full curve, poor fit] | – |
| COc1cccc(OCc2nc3c(n2Cc2ccccc2)C(=O)N(Cc2ccccc2C#N)CCN3)c1 | inconclusive: 35.5 µM [inhibitor, single point] | – |
| CCC(CC)C(=O)N1C[C@@H]2CCCN3CCC[C@@H]([C@H]23)[C@H]1CCCC(=O)N1CCOCC1 | – | inactive: -9.37% |

| Compound | Potency | activity change, negative = inhibition |
| --- | --- | --- |
| Cc1cnc(C)c(N2CCC(C(=O)O)(n3ccc(-c4ccco4)n3)CC2)n1 | inconclusive: 12.6 µM [inhibitor, partial curve] | – |
| COc1cccc(C(=O)N2CCC3(CC2)CCN(CCc2ccccc2)c2ccccc2O3)c1 | inconclusive: 11.2 µM [inhibitor, partial curve] | – |
| COc1ccc(-c2cc(C(=O)Oc3ccc(Br)cc3)c3ccccc3n2)cc1 | inconclusive: 14.1 µM [inhibitor, partial curve, poor fit] | – |
| C=CCn1cc2c3c(cccc31)[C@H](CC(C)C)N[C@H](C(=O)NCCN(C)C)C2 | active: 31.6 µM | – |
| Cc1ccc(NC(=O)c2oc3ccccc3c2NC(=O)C2CCCCC2)cc1 | inconclusive: 12.6 µM [inhibitor, partial curve, poor fit] | – |
| Cc1nc2ncccn2c1C(=O)N1CCC(c2[nH]ncc2-c2ccccc2)CC1 | active: 28.2 µM | – |
| O=C(Cc1c[nH]c2ncc(-c3ccccc3)cc12)Nc1ccc(Cl)cc1 | – | inactive: -21% [at 86.2 µM] |
| O=C(O)C1(c2cccc(Br)c2)CCCC1 | – | inactive: 12.7% |
| COc1ccc(NCCC(c2ccc(F)cc2)c2ccc(Cl)cc2)cc1 (stereo unspecified) | inconclusive: 20 µM [inhibitor, partial curve, poor fit] | – |
| Fc1ccc(NC(=S)NCCC(c2ccccc2)c2ccccc2)cc1Cl | – | inactive: -2.31% |
| C=CCOc1ccc(/C=C/C(=O)c2ccc(C#N)cc2)cc1 | – | inactive: -14.2% |
| COc1ccccc1CNc1ccc2nnc(CCNC(=O)c3ccc(C)cc3)n2n1 | – | inactive: -40.5% |
| CCc1cc(C(=O)O)sc1-c1ccc(C)cc1 | inconclusive: 25.1 µM [inhibitor, partial curve, poor fit] | – |
| C/C(=N\NC(=O)c1cccs1)c1cccc(C)c1 | – | inactive: 2.37% |
| O=C(Nc1ccc(F)c(F)c1)c1ccc(=O)n(Cc2ccc(F)cc2)c1 | – | inconclusive: -40.2% [inhibitor] |
| O=S(=O)(Nc1ccc(OC(F)(F)F)cc1)c1ccc(N2CCCCS2(=O)=O)cc1 | inconclusive: 17.8 µM [inhibitor, partial curve, poor fit] | – |
| COC(=O)C1=C(C)N=C2SC=C(CC(=O)NC3CC3)N2C1c1cccc(OC)c1 (stereo unspecified) | inconclusive: 20 µM [inhibitor, partial curve, poor fit] | – |
| O=C(Cn1c(=O)c2ccccc2n(CC(=O)Nc2ccccc2F)c1=O)NCCc1ccccc1 | – | inconclusive: -32.1% [inhibitor] |
| COc1ccccc1C(=O)N1CCN(c2cc(-c3cccs3)[nH]n2)CC1 | – | inactive: -22.6% |
| CN(C)CC1(O)CCC2(CCN(C(=O)c3cccc(F)c3)CC2)CC1 | inconclusive: 22.4 µM [inhibitor, partial curve, poor fit] | – |
| O=C(O)CCCC(=O)N[C@H]1CO[C@H]2[C@@H]1OC[C@@H]2Nc1nccc(-c2ccc(-c3ccccc3)cc2)n1 | active: 31.6 µM | – |
| CCC(=O)N1c2ccc(S(=O)(=O)CCC(=O)NCc3ccc(OC)cc3)cc2CC1C (stereo unspecified) | – | inconclusive: -47.3% [inhibitor] |

| Compound | Potency | activity change, negative = inhibition |
| --- | --- | --- |
| Cc1ccc(NC(=O)CCNC(=O)Cc2ccccc2)cc1C | – | inactive: 17.7% |
| Cc1ncsc1C(=O)N1CC(CNC(=O)Cc2ccccc2)C2(C1)CN(c1ccccc1)C2 (stereo unspecified) | inconclusive: 39.8 µM [inhibitor, single point] | – |
| CCn1nccc1C(=O)NCCC1CCN(C(=O)Nc2ccc(C)cc2)CC1 | – | inactive: -15.8% |
| CCc1ccc2nc(N/C(N)=N/S(=O)(=O)c3ccc(C)cc3)nc(C)c2c1 | – | inactive: -6.05% |
| COc1ccc(-c2noc([C@@H]3C[C@@H](O)CN3Cc3ccccc3)n2)cc1 | inconclusive: 56.2 µM [inhibitor, single point] | – |
| CCc1ccc(Nc2nc(-c3cc4cccc(OC)c4oc3=O)c(CC)s2)cc1 | inconclusive: 28.2 µM [inhibitor, partial curve, poor fit] | – |
| CCOC(=O)c1ccc(NC(=O)Nc2cc3c(cc2N2CCCCC2)n(CC)c(=O)n3CC)cc1 | inconclusive: 25.1 µM [inhibitor, partial curve, poor fit] | – |
| COCC(=O)N1CCC(C(NC(=O)c2ccccc2)C(=O)N2CCCCC2)CC1 (stereo unspecified) | inconclusive: 17.8 µM [inhibitor, partial curve, poor fit] | – |
| CCCN(C(=O)c1cc2c(s1)-c1ccccc1OC2)c1ccc(C(C)C)cc1 | inconclusive: 28.2 µM [inhibitor, partial curve, poor fit] | – |
| Cc1cccc(N2CCN(C(=O)CN3CC4(CCCCC4)CC3=O)CC2)n1 | active: 31.6 µM | – |
| Cc1nn(-c2ccc(F)cc2)c(C)c1[C@@H]1C=C[C@@H](NC(=O)c2ccco2)C1 | inconclusive: 31.6 µM [inhibitor, partial curve] | – |
| CC(C)(C)C(CN1CCCC1)OC(=O)c1ccccc1C(=O)O (stereo unspecified) | – | inactive: 24.7% |
| CO[C@H]1[C@H](NC(=O)c2cc3ccccc3n2C)c2ccccc2C12CCNCC2 | inconclusive: 14.1 µM [inhibitor, partial curve] | – |
| CN(CC(=O)Nc1ccc(C(F)(F)F)cc1)C1CCc2ccccc21 (stereo unspecified) | – | inactive: -0.498% |
| COc1ccc(-c2nc3scc(CCNS(=O)(=O)c4cccs4)n3n2)cc1 | inconclusive: 7.94 µM [inhibitor, partial curve, poor fit] | – |
| CCCN(CCC)Cc1ccc(C(=O)NCc2c(C)noc2C)cc1 | active: 28.2 µM | – |
| COc1cc(Cl)c(NS(=O)(=O)c2cc3[nH]c(=O)c(=O)[nH]c3cc2C)c(OC)c1 | inconclusive: 35.5 µM [inhibitor, single point] | – |
| CCCCCCCOc1ccc(S(=O)(=O)c2ccc(OCCCCCCC)cc2)cc1 | – | inactive: -4.03% |
| CCNC(=O)[C@@H]1C[C@H](n2cc(CN(C)C(=O)c3cccc(C)c3C)nn2)CN1 | inconclusive: 28.2 µM [inhibitor, partial curve, poor fit] | – |
| CCOc1ccccc1C(=O)N1CCCN(c2cc(-c3ccc(Cl)cc3)[nH]n2)CC1 | inconclusive: 8.91 µM [inhibitor, partial curve] | – |
| CCN1CCC(N2CCC3(CC2)CN(c2ccncn2)CC3CO)CC1 (stereo unspecified) | inconclusive: 22.4 µM [inhibitor, partial curve] | – |
| CCOc1ccc(-c2cc3nc(C4CCN(C(=O)OC(C)(C)C)CC4)c(C(=O)Nc4cccc(C(F)(F)F)c4)cn3n2)cc1 | inconclusive: 14.1 µM [inhibitor, partial curve, poor fit] | – |
